Measured values as given in the supplement of paper PMC7266297.
Where a name gives a salt, the structure may show the parent alone. This is one part of the list. Single values are uncertain, as repeats are few or missing.

Assays:
[1] = test system: KB-3-1; test: growth inhibition relative to DMSO control (SRB); cervical cancer cells: KB-3-1 is the parent and KB-V1 overexpresses MDR1; SRB is the sulforhodamine B stain; higher = more growth inhibition; details: 1 µM; 72 h
[2] = test system: KB-V1; test: as above; details: 1 µM; 72 h
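Note: Read-out is SRB optical density at 490 nm, with the control being wells given 0.5% DMSO vehicle, and compound added one day after cells were plated.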

| SMILES | growth inhibition [1] | growth inhibition [2] |
| --- | --- | --- |
| CNC(=C[N+](=O)[O-])NCCSCc1ccc(CN(C)C)o1 [Ranitidine] | 46.6% | 22.5% |
| Cn1cnc(N)c2ncnc1-2 [3-Methyladenine] | < 0% | < 0% |
| Cc1ccc(C(=O)Nc2ccc(CN3CCN(C)CC3)c(C(F)(F)F)c2)cc1C#Cc1cnc2[nH]ncc2c1 | 54.8% | 46.5% |
| COc1cc2c(N3CCN(C(=O)Nc4ccc(OC(C)C)cc4)CC3)ncnc2cc1OCCCN1CCCCC1 [Tandutinib (MLN518)] | 78.4% | 75.8% |
| CO[C@H]1C[C@@H]2CC[C@@H](C)[C@@](O)(O2)C(=O)C(=O)N2CCCC[C@H]2C(=O)O[C@H]([C@H](C)C[C@@H]2CC[C@@H](OCCO)[C@H](OC)C2)CC(=O)[C@H](C)/C=C(\C)[C@@H](O)[C@@H](OC)C(=O)[C@H](C)C[C@H](C)/C=C/C=C/C=C/1C [Everolimus (RAD001)] | 77.5% | 69.4% |
| CCc1c(O)cc(O)c(C(=O)c2ccc(OCCN3CCOCC3)c(OC)c2)c1CC(=O)N(CCOC)CCOC | < 0% | < 0% |
| O=C(O)C(Cc1c[nH]c2ccccc12)N1C(=O)c2ccccc2C1=O (stereo unspecified) | 11.5% | 7.73% |
| CCOc1ccc(NC(C)=O)cc1 [Phenacetin] | 27.8% | < 0% |
| NC(=O)N1c2ccccc2C=Cc2ccccc21 [Carbamazepine] | 36.3% | 12.2% |
| Cc1c(-c2ccc(O)cc2)n(Cc2ccc(OCCN3CCCCCC3)cc2)c2ccc(O)cc12 [Bazedoxifene HCl] | < 0% | 25.2% |
| O=C(c1ccc(OCCCc2c[nH]cn2)cc1)C1CC1 [Ciproxifan] | 21.5% | < 0% |
| CC1(COc2ccc3c(c2)ncn3-c2ccc3cccc(N4CCC(N)CC4)c3n2)COC1 | < 0% | 9.38% |
| CCCSc1nc(N[C@@H]2C[C@H]2c2ccc(F)c(F)c2)c2nnn([C@@H]3C[C@H](OCCO)[C@@H](O)[C@H]3O)c2n1 [Ticagrelor] | 35.4% | 13.8% |
| O=C(COc1cccc2c(=O)[nH]ccc12)c1ccccc1 | 49.9% | 19.1% |
| COc1cccc2c1C(=O)c1c(O)c3c(c(O)c1C2=O)C[C@@](O)(C(=O)CO)C[C@@H]3O[C@H]1C[C@H](N)[C@@H](O)[C@H](C)O1 [Epirubicin HCl] | 80.2% | 48.5% |
| COc1cccc(C=NCCN=Cc2cccc(OC)c2[O-])c1[O-].[Cl-].[Mn+3] | 19.6% | 3.67% |
| Nc1cccc2c1C(=O)N(C1CCC(=O)NC1=O)C2=O (stereo unspecified) [Pomalidomide] | 35.8% | 19.3% |
| C[C@H](NCc1ccc(OCc2cccc(F)c2)cc1)C(N)=O [Safinamide Mesylate] | 33.9% | 19.7% |
| CCc1nc(-c2cccc(C)c2)c(-c2ccnc(NC(=O)c3ccccc3)c2)s1 | < 0% | 11.3% |
| O=C1NC(=O)C(c2ccccc2)(c2ccccc2)N1 [Phenytoin] | 26% | 8.51% |
| CN1CCC[C@@H]1CCO[C@](C)(c1ccccc1)c1ccc(Cl)cc1 [Clemastine Fumarate] | 47.3% | 20.6% |
| CNC(=O)c1cc(Oc2ccc(NC(=O)Nc3ccc(Cl)c(C(F)(F)F)c3)cc2)ccn1 [Sorafenib] | 58.6% | 17.9% |
| C[N+](C)(C)CCOC(=O)CCC(=O)OCC[N+](C)(C)C [Succinylcholine Chloride Dihydrate] | 40.5% | < 0% |
| Cc1ccc(C(=O)N(CCCN)[C@@H](c2oc3cc(Cl)ccc3c(=O)c2Cc2ccccc2)C(C)C)cc1 | 78% | 100% |
| Cc1c(C(=O)N2CCOc3ccc(-c4ccc(N)nc4)cc3C2)ccc(S(C)(=O)=O)c1F | 73.2% | 42.7% |

| SMILES | growth inhibition [1] | growth inhibition [2] |
| --- | --- | --- |
| CCOC(=O)C1=C(N)Oc2ccc(Br)cc2C1C(C#N)C(=O)OCC (stereo unspecified) | 15.8% | 38% |
| CCCNS(=O)(=O)Nc1ncnc(OCCOc2ncc(Br)cn2)c1-c1ccc(Br)cc1 [Macitentan] | 45% | < 0% |
| COCCOC(=O)C1=C(C)NC(C)=C(C(=O)OC(C)C)C1c1cccc([N+](=O)[O-])c1 (stereo unspecified) [Nimodipine] | 48.8% | 21.1% |
| C[C@H](Cn1cnc2c(N)ncnc21)OCP(=O)(O)O [Tenofovir] | 16.7% | 31.7% |
| CCOC(=O)C1=C(COCCN)NC(C)=C(C(=O)OC)C1c1ccccc1Cl (stereo unspecified) [Amlodipine] | 51% | 20.6% |
| c1cc(-c2cnn3cc(-c4ccc(N5CCNCC5)cc4)cnc23)c2cccnc2c1 | 74.6% | 95.8% |
| Cc1ncc(-c2ccnc(Nc3ccc(S(C)(=O)=O)cc3)n2)n1C(C)C | 61.7% | 13.8% |
| CN1CCN(C2=Nc3cc(Cl)ccc3Nc3ccccc32)CC1 [Clozapine] | 26% | 6.49% |
| C[S+]([O-])c1ccc(-c2nc(-c3ccc(F)cc3)c(-c3ccncc3)[nH]2)cc1 (stereo unspecified) | 10.6% | 21.2% |
| CN1CCc2c(c3ccccc3n2Cc2ccc(C(=O)NO)cc2)C1 [Tubastatin A HCl] | 16.2% | < 0% |
| CC(C)OC(=O)C1=CN(C(=O)c2ccc(F)c(F)c2)CC(C)(C)c2c1[nH]c1ccccc21 | < 0% | < 0% |
| CC(C)C[C@@H](C=O)NC(=O)[C@H](CC(C)C)NC(=O)[C@H](CC(C)C)NC(=O)OCc1ccccc1 | 100% | 96.8% |
| Nc1nc(N)c2nc(-c3ccccc3)c(N)nc2n1 [Triamterene] | 45.6% | 14.7% |
| COC(=O)N[C@H](C(=O)N1CCC[C@H]1c1ncc(-c2ccc(-c3ccc(-c4cnc([C@@H]5CCCN5C(=O)[C@@H](NC(=O)OC)C(C)C)[nH]4)cc3)cc2)[nH]1)C(C)C | 33% | 18% |
| Cc1ccc([C@@H]2O[C@H](CO)[C@@H](O)[C@H](O)[C@H]2O)cc1Cc1ccc(-c2ccc(F)cc2)s1 [Canagliflozin] | < 0% | 7.81% |
| O=c1sn(-c2cccc3ccccc23)c(=O)n1Cc1ccccc1 [Tideglusib] | < 0% | 12.9% |
| Cn1ncnc1[C@H]1c2n[nH]c(=O)c3cc(F)cc(c23)N[C@@H]1c1ccc(F)cc1 | 26% | 32.2% |
| O=C(C=Cc1ccccc1)NC(NC(=S)Nc1ccc(Cl)cc1)C(Cl)(Cl)Cl (stereo unspecified) | 57.9% | 13% |
| CCNC(=O)Nc1ccc(-c2nc3c(c(N4CCOC[C@@H]4C)n2)CCN(C2COC2)C3)cc1 | 87.5% | 54.6% |
| Nc1nc(N)c2nc(-c3cccc(O)c3)c(-c3cccc(O)c3)nc2n1 | 12.1% | 34.9% |
| COc1ccc(Cn2ccc3ccc(C(=O)NO)cc32)cc1 | 42.9% | 23.8% |
| CS(=O)(=O)N1CCc2c(-c3cnc(N)nc3)nc(N3CCOCC3)nc21 | < 0% | 37.5% |
| Nc1ccc2ncnc(NCCc3ccc(Oc4ccccc4)cc3)c2c1 | 30.2% | 65.5% |
| Cc1cn([C@H]2C=C[C@@H](CO)O2)c(=O)[nH]c1=O [Stavudine (d4T)] | 12.1% | 34.2% |
| CC(C)[C@H](C(=O)Nc1ccc(C(=O)NO)cc1)c1ccccc1 | 88.7% | 85% |

| SMILES | growth inhibition [1] | growth inhibition [2] |
| --- | --- | --- |
| C[C@H](Nc1ncnc2nc[nH]c12)c1cc2cccc(Cl)c2c(=O)n1-c1ccccc1 | 10.3% | 25.4% |
| COc1cc(Nc2ncc(F)c(Nc3ccc4c(n3)NC(=O)C(C)(C)O4)n2)cc(OC)c1OC [R406 (free base)] | 27.6% | 28.3% |
| CC1C(=O)OC2C(O)C34C5CC(C(C)(C)C)C36C(OC(=O)C6O)OC4(C(=O)O5)C12O (stereo unspecified) [Ginkgolide B] | 13% | 42.2% |
| CCCCOc1ccc(C(=O)Nc2ccc(F)cc2F)cc1 | 16.7% | 54.6% |
| c1ccc(CC2=NCCN2)cc1 [Tolazoline HCl] | 21.7% | 37.8% |
| Cc1cc(Nc2ccc(NC(=O)c3ccc(Nc4ccnc5ccccc45)cc3)cc2)nc(N)n1 | 100% | 15.4% |
| COc1cc2ncnc(Nc3cccc(Cl)c3)c2cc1OC [AG-1478 (Tyrphostin AG-1478)] | < 0% | < 0% |
| c1cnc2cc3c(cc2n1)[C@@H]1CNC[C@H]3C1 [Varenicline Tartrate] | 11.8% | 32.3% |
| Cn1c(=O)c(F)c(Nc2ccc(I)cc2F)c2c(=O)n(C[C@@H](O)CO)cnc21 | 34% | 3.73% |
| CCCCCCCCCCCCc1ccc(S(=O)(=O)Nc2nncs2)cc1 | 27.9% | 2.32% |
| OCCn1cc(-c2ccc3c(c2)CC/C3=N\O)c(-c2ccncc2)n1 | 4.91% | 20.4% |
| CN(C)C(=O)c1ccc(S(=O)(=O)c2ccc(NC(=O)[C@@](C)(O)C(F)(F)F)c(Cl)c2)cc1 | 45.6% | 5.56% |
| O=C(O)c1cccnc1Nc1cccc(C(F)(F)F)c1 [Niflumic acid] | < 0% | 3.17% |
| C=CCn1c(=O)c2cnc(Nc3ccc(N4CCN(C)CC4)cc3)nc2n1-c1cccc(C(C)(C)O)n1 | 97.9% | 75.2% |
| Cc1cncc(CN2CCC(=C3c4ccc(Cl)cc4CCc4cccnc43)CC2)c1 [Rupatadine Fumarate] | < 0% | 13.6% |
| C[C@]1(c2nc3c(C(N)=O)cccc3[nH]2)CCCN1 [Veliparib (ABT-888)] | 44.6% | 32.5% |
| Nc1cccc(-c2cc3c(Oc4cccc(O)c4)ncnc3[nH]2)c1 | 33.4% | 11.6% |
| Cc1[nH]nc2ccc(-c3cncc(OC[C@@H](N)Cc4ccccc4)c3)cc12 | 40.7% | 82% |
| CC(NC(=O)c1ccccc1/N=C/c1c(O)ccc2ccccc12)c1ccccc1 (stereo unspecified) [Sirtinol] | 7.14% | 10.8% |
| Nc1ncnc2c1c(-c1cccc(OCc3ccccc3)c1)cn2C1CC(CN2CCCC2)C1 (stereo unspecified) | 59.7% | 60.1% |
| O=C1C(=O)N(Cc2ccc(Cl)c(Cl)c2)c2ccccc21 [Apoptosis Activator 2] | < 0% | 9.02% |
| CCCCCCCCOc1ccccc1C(=O)Nc1ccc(C(=O)OCC[N+](C)(CC)CC)cc1 [Otilonium Bromide] | < 0% | 1.63% |
| Cc1cccc(Nc2cc(Cl)nc(SCC(=O)O)n2)c1C | 59.8% | 4.32% |
